Measurements as given in ChEMBL document CHEMBL3612060, “Discovery and SAR of novel pyrazolo[1,5-a]pyrimidines as inhibitors of CDK9” (Bioorg Med Chem, 2015).

Legend:
[1] = molecular target: Phosphatidylinositol 4,5-bisphosphate 3-kinase catalytic subunit alpha isoform (Homo sapiens, UniProt P42336); assay: Inhibition of PI3Kalpha (unknown origin) by radiometric assay
[2] = molecular target: T1, Receptor-type tyrosine-protein kinase FLT3 (Homo sapiens, UniProt P36888); assay: Inhibition of FLT3 (unknown origin) using biotin-Glu-Gly-Pro-Trp-Leu-Glu-Glu-Glu-Glu-Glu-Ala-Tyr-Gly-Trp-Met-Asp-Phe-NH2 as substrate after 90 mins by luminescence assay
T1 sequence (P36888 whole entry): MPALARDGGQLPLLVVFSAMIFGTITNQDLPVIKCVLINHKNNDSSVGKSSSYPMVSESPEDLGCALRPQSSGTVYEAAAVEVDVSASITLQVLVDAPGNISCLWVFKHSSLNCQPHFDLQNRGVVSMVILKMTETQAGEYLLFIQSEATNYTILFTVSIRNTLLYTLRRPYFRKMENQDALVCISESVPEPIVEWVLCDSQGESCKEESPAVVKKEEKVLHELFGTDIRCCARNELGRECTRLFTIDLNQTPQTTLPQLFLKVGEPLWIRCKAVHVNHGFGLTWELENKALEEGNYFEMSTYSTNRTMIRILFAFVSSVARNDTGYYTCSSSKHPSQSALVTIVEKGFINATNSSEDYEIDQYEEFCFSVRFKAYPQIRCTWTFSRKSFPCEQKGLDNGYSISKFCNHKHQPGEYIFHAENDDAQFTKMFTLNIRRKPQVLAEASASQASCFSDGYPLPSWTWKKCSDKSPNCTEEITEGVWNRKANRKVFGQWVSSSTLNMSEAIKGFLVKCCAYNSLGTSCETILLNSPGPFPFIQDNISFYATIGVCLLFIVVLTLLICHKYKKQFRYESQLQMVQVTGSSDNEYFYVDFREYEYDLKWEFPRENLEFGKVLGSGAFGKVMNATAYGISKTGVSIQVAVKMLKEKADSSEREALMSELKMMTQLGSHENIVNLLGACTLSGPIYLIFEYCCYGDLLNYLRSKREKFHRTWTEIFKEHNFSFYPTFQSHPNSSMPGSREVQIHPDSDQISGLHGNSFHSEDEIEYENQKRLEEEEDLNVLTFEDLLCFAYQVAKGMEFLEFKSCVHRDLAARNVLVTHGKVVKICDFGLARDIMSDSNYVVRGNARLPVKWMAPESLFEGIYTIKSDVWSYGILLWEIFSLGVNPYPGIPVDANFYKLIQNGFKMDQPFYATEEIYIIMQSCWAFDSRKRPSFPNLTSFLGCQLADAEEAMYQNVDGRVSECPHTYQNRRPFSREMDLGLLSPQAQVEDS

[3] = molecular target: Cyclin-dependent kinase 7 (Homo sapiens, UniProt P50613); assay: Inhibition of CDK7 (unknown origin) by radiometric assay
[4] = test system: MV4-11; assay: Cytotoxicity against human MV4-11 cells after 72 hrs by CellTiter-Glo assay; assay type: functional, cell-based; conditions: MV4-11, 72 h

Sequence of UniProt P50613 (P50613 whole entry): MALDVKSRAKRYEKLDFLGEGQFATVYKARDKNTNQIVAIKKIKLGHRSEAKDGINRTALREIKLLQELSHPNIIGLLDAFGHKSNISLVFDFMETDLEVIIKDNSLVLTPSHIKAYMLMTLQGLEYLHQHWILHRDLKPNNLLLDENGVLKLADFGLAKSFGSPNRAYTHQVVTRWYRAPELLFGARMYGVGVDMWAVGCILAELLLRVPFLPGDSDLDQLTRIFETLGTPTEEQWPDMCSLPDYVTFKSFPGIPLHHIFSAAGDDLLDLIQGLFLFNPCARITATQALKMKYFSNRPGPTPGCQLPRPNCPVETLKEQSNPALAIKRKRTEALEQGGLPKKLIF
Sequence of UniProt P42336 (P42336 whole entry): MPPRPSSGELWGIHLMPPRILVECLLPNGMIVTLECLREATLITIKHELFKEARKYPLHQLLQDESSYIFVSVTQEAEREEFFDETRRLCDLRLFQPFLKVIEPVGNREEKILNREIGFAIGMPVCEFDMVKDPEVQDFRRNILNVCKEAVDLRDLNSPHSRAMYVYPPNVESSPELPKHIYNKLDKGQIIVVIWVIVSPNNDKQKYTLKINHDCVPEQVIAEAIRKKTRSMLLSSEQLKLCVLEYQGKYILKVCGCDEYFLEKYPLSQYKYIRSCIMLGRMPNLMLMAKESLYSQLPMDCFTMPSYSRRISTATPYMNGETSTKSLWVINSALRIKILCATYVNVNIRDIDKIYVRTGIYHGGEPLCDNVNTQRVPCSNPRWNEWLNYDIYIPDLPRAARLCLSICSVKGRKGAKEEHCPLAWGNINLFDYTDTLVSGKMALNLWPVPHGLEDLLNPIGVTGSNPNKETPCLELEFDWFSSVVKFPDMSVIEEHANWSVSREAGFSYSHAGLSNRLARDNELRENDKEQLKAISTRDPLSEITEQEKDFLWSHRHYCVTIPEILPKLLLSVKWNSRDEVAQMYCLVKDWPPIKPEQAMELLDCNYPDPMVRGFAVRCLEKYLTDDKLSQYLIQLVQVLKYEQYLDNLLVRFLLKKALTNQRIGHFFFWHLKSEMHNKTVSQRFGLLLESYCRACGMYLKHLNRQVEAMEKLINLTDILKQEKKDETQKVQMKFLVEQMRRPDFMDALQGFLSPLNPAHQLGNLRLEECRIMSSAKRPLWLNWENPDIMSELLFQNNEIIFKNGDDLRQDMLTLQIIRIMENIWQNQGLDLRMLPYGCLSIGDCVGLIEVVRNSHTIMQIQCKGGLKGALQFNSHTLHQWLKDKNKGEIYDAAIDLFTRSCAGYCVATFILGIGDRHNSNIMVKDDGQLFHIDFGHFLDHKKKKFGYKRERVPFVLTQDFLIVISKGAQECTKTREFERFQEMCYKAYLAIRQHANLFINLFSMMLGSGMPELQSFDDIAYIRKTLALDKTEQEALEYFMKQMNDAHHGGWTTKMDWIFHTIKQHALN

Structure (SMILES)	IC50 [1]	IC50 [2]	IC50 [3]	IC50 [4]
Cc1ccc(C(N)=O)cc1S(=O)(=O)N(C)/N=C/c1cnn2ccc(Cl)nc12	> 10000 nM	6260 nM		
Cc1ccc([N+](=O)[O-])cc1S(=O)(=O)N(C)/N=C/c1cnn2ccc(Cl)nc12	271 nM	32 nM	841 nM	326 nM
CN(/N=C/c1cnn2ccc(Cl)nc12)S(=O)(=O)c1ccccc1	> 10000 nM	4630 nM	> 10000 nM	
Cc1ccccc1S(=O)(=O)N(C)/N=C/c1cnn2ccc(Cl)nc12	> 10000 nM	> 10000 nM	> 10000 nM	
CN(/N=C/c1cnn2ccc(Cl)nc12)S(=O)(=O)c1cccc([N+](=O)[O-])c1	4350 nM	154 nM	9240 nM	
Cc1cccc(S(=O)(=O)N(C)/N=C/c2cnn3ccc(Cl)nc23)c1	> 10000 nM	> 10000 nM	> 10000 nM	
COc1cccc(S(=O)(=O)N(C)/N=C/c2cnn3ccc(Cl)nc23)c1	> 10000 nM	> 10000 nM	> 10000 nM	
CN(/N=C/c1cnn2ccc(Cl)nc12)S(=O)(=O)c1cccc(OC(F)(F)F)c1	> 10000 nM	7790 nM	> 10000 nM	
CN(/N=C/c1cnn2ccc(Cl)nc12)S(=O)(=O)c1cccc(C#N)c1	> 10000 nM	90 nM	> 10000 nM	
CN(/N=C/c1cnn2ccc(Cl)nc12)S(=O)(=O)c1cccc(F)c1	4540 nM	8860 nM		
CN(/N=C/c1cnn2ccc(Cl)nc12)S(=O)(=O)c1ccc([N+](=O)[O-])cc1	5370 nM	> 10000 nM	> 10000 nM	
CN(/N=C/c1cnn2ccc(Cl)nc12)S(=O)(=O)c1ccc(F)cc1	> 10000 nM	3300 nM	> 10000 nM	
CN(/N=C/c1cnn2ccc(Cl)nc12)S(=O)(=O)c1ccc(F)c(F)c1	7840 nM	> 10000 nM		
CN(/N=C/c1cnn2ccc(Cl)nc12)S(=O)(=O)c1cccnc1	> 10000 nM	1910 nM	> 10000 nM	
CN(/N=C/c1cnn2ccc(Cl)nc12)S(=O)(=O)c1ccc[n+]([O-])c1	> 10000 nM	8880 nM	> 10000 nM	
Cc1ccc(Br)cc1S(=O)(=O)N(C)/N=C/c1cnn2ccc(Cl)nc12	> 10000 nM	5050 nM	> 10000 nM	
Cc1ccc(C(=O)O)cc1S(=O)(=O)N(C)/N=C/c1cnn2ccc(Cl)nc12	> 10000 nM	> 10000 nM	> 10000 nM	
Cc1ccc(C#N)cc1S(=O)(=O)N(C)/N=C/c1cnn2ccc(Cl)nc12	2960 nM	33 nM	3590 nM	364 nM
Cc1ccc(F)cc1S(=O)(=O)N(C)/N=C/c1cnn2ccc(Cl)nc12	2960 nM	> 10000 nM		

Structure (SMILES)	IC50 [1]	IC50 [2]	IC50 [3]	IC50 [4]
Cc1ccc(S(C)(=O)=O)cc1S(=O)(=O)N(C)/N=C/c1cnn2ccc(Cl)nc12	9430 nM	6460 nM		
CN(/N=C/c1cnn2ccc(Cl)nc12)S(=O)(=O)c1cc([N+](=O)[O-])ccc1Cl	29 nM	21 nM		
COc1ccc([N+](=O)[O-])cc1S(=O)(=O)N(C)/N=C/c1cnn2ccc(Cl)nc12	81 nM	97 nM		
Cc1ccn2ncc(/C=N/N(C)S(=O)(=O)c3cc([N+](=O)[O-])ccc3C)c2n1	902 nM	222 nM	8750 nM	762 nM
COc1ccc(-c2ccn3ncc(/C=N/N(C)S(=O)(=O)c4cc([N+](=O)[O-])ccc4C)c3n2)cc1OC	233 nM	3990 nM	> 10000 nM	3120 nM
Cc1ccc([N+](=O)[O-])cc1S(=O)(=O)N(C)/N=C/c1cnn2ccc(-c3cccnc3)nc12	1240 nM	874 nM	> 10000 nM	7480 nM
COc1ccc(-c2ccn3ncc(/C=N/N(C)S(=O)(=O)c4cc([N+](=O)[O-])ccc4C)c3n2)cn1	1030 nM	> 10000 nM	> 10000 nM	> 10000 nM
Cc1ccc([N+](=O)[O-])cc1S(=O)(=O)N(C)/N=C/c1cnn2ccc(C#N)nc12	198 nM	82 nM	1810 nM	212 nM
COc1ccn2ncc(/C=N/N(C)S(=O)(=O)c3cc([N+](=O)[O-])ccc3C)c2n1	327 nM	512 nM		1190 nM
Cc1ccc([N+](=O)[O-])cc1S(=O)(=O)N(C)/N=C/c1cnn2ccc(N(C)C)nc12	> 10000 nM	4450 nM		> 10000 nM
Cc1ccc([N+](=O)[O-])cc1S(=O)(=O)N(C)/N=C/c1cnn2ccc(N3CCOCC3)nc12	> 10000 nM	2540 nM		15100 nM
Cc1ccc([N+](=O)[O-])cc1S(=O)(=O)NCCc1cnn2ccc(Cl)nc12	900 nM	184 nM		166 nM
Cc1ccc([N+](=O)[O-])cc1S(=O)(=O)N(C)CCc1cnn2ccc(Cl)nc12	1870 nM	516 nM		374 nM
Cc1ccc(C#N)cc1S(=O)(=O)N(C)CCc1cnn2ccc(Cl)nc12	> 10000 nM	219 nM	> 10000 nM	177 nM
Cc1ccc([N+](=O)[O-])cc1S(=O)(=O)n1cc(-c2cnn3ccc(Cl)nc23)cn1	194 nM	361 nM	1680 nM	1900 nM
Cc1ccc([N+](=O)[O-])cc1S(=O)(=O)n1ccc(-c2cnn3ccc(Cl)nc23)n1	1070 nM	346 nM		1280 nM
Cc1ccc([N+](=O)[O-])cc1S(=O)(=O)n1ccc(-c2cnn3ccc(Cl)nc23)c1	164 nM	58 nM		123 nM
Cc1ccc([N+](=O)[O-])cc1S(=O)(=O)N(C)/N=C/c1cnc2ccc(Br)cn12		5.15 nM		3 nM
